{"source": "PubChem BioAssay AID485294", "about": "(National Center for Advancing Translational Sciences (NCATS), 2010)", "note": "The whole screen tested about 370,000 compounds, of which about 150 (0.041%) were called active. Inconclusive means that the source gave no clear call. Such entries were picked first, then a sample of the others. Calls come from the whole dose curve; as a rule, active = well fitted inhibition curve with a large enough effect; inconclusive = small, poorly fitted or top-dose-only effect; inactive = flat fitted curve, though single readings scatter. No potency is given beside an inconclusive call; the fits are too rough."}
{"molecular_target": "Beta-lactamase (Escherichia coli (strain K12)) (UniProt P00811)", "sequence (P00811 whole entry, looked up)": "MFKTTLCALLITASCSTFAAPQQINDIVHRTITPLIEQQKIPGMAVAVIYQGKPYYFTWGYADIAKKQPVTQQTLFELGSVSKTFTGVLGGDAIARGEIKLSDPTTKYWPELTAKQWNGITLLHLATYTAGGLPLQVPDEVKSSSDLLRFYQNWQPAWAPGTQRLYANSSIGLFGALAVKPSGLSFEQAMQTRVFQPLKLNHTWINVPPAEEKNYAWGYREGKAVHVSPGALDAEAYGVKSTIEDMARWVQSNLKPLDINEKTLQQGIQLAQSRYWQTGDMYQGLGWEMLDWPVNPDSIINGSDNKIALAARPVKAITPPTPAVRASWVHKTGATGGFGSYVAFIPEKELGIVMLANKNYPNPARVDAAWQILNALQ", "assay": "qHTS Inhibitors of AmpC Beta-Lactamase (assay with detergent); note: nearly all actives have a fitted effect of over 25% in size; note: potency is the fitted concentration of half-maximal effect; tags give direction and shape of the fitted curve;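 for activity change, negative = inhibition: 0% = no-compound wells and -100% = no-enzyme wells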", "conditions": "AmpC hydrolysis of nitrocefin, absorbance 480 nm, 0.01% Triton; activity change, negative = inhibition: at 114 µM (top of the series)", "how_it_was_run": "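AmpC (5.3 nM in the dispensed reagent) in 20 mM phosphate pH 7.0 with 0.01% (detergent screen) or 0.0001% Triton X-100 was preincubated with compounds for 15 min at room temperature. Nitrocefin was then added from an 800 uM solution, and hydrolysis was followed at 480 nm.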"}
{"compound": "Cn1nnnc1SC(C(=O)Nc1cccc(C(F)(F)F)c1)c1ccccc1", "note": "(stereo not drawn)", "Potency": "inconclusive [inhibitor, full curve, poor fit]"}
{"compound": "CCCN1CCC(CCOc2ccccc2)(C(=O)OCC)CC1", "Potency": "inconclusive [inhibitor, full curve, poor fit]"}
{"compound": "N#Cc1c(/N=C/c2ccco2)sc2c1CCCCC2", "Potency": "inconclusive [inhibitor, partial curve, poor fit]"}
{"compound": "COc1cccc(NC(=O)CN(C)C(=O)Cn2c(=O)oc3ccccc32)c1", "Potency": "inconclusive [inhibitor, full curve, poor fit]"}
{"compound": "Cc1cnn(-c2cc(N/N=C/c3ccccc3F)ncn2)c1", "Potency": "inconclusive [inhibitor, partial curve]"}
{"compound": "O=C1c2cccc3cccc(c23)C(=O)N1CCN1CCN(C(=S)Nc2ccc(Cl)cc2)CC1", "Potency": "inconclusive [inhibitor, single point]"}
{"compound": "COc1ccc(O)c(C(=O)c2cnc3c(c2)c(=O)[nH]c(=O)n3C)c1", "Potency": "inconclusive [inhibitor, full curve]"}
{"compound": "COCC(C)n1c(C)cc(C(=O)CSc2nnc(Nc3ccccc3F)s2)c1C", "note": "(stereo not drawn)", "activity change, negative = inhibition": "inactive: -5.8%"}
{"compound": "N/C(=N\\OC(=O)C1CCCCC1)c1cccc([N+](=O)[O-])c1", "Potency": "inconclusive [inhibitor, partial curve, poor fit]"}
{"compound": "CCOC(=O)c1c(N2C(=O)C=CC2=O)sc(C)c1C", "activity change, negative = inhibition": "inactive: -6.09%"}
{"compound": "Cc1ccc(C2CC(=O)N(c3ccc(F)cc3)C3=C2C(=O)CCC3)cc1", "note": "(stereo not drawn)", "Potency": "inconclusive [inhibitor, single point]"}
{"compound": "CCOC(=O)C1CCCCN1Cc1ccc(C(F)(F)F)cc1", "note": "(stereo not drawn)", "activity change, negative = inhibition": "inactive: -12.2%"}
{"compound": "CSCCC(NC(=O)c1ccco1)C(=O)NC1CCCCCC1", "note": "(stereo not drawn)", "Potency": "inconclusive [inhibitor, full curve, poor fit]"}
{"compound": "COc1cc(Cl)ccc1OCc1cc(C(=O)NCC(C)(C)N2CCOCC2)no1", "Potency": "inconclusive [inhibitor, partial curve, poor fit]"}
{"compound": "O=C(O)Cc1ccc(NC(=O)c2ccc(NC(=O)C3CC3)cc2)cc1", "activity change, negative = inhibition": "inactive: 1.71%"}
{"compound": "COc1ccc2c(CNCCc3cccs3)c(C(=O)O)n(Cc3ccccc3C)c2c1", "activity change, negative = inhibition": "inactive: -1.24%"}
{"compound": "CCN(CC)S(=O)(=O)c1ccc(N2CCOCC2)c(NC(=O)C2CSC3(C)CCC(=O)N23)c1", "note": "(stereo not drawn)", "Potency": "inconclusive [inhibitor, partial curve, poor fit]"}
{"compound": "COCCN(C(=O)COC(=O)C1COc2ccccc2O1)c1c(N)n(Cc2ccccc2)c(=O)[nH]c1=O", "note": "(stereo not drawn)", "Potency": "inconclusive [inhibitor, partial curve, poor fit]"}
{"compound": "COC(=O)c1c(C)[nH]c(/C=N/Nc2ccccc2)c1C", "activity change, negative = inhibition": "inactive: -4.29%"}
{"compound": "COc1ccc(CCNC(=O)c2ccc(NS(=O)(=O)c3ccc4[nH]c(=O)[nH]c4c3)cc2)cc1", "Potency": "inconclusive [inhibitor, full curve]"}
{"compound": "Cc1ccc(-n2c(C)cc(C(=O)COC(=O)c3ccc[nH]c3=O)c2C)cc1", "activity change, negative = inhibition": "inactive: 0.281%"}
{"compound": "Brc1ccc(-c2nn3c(-c4ccncc4)nnc3s2)o1", "Potency": "inconclusive [inhibitor, single point]"}
{"compound": "CC(C(=O)NC1CCCc2ccccc21)N1C(=O)C2CCCCC2C1=O", "note": "(stereo not drawn)", "activity change, negative = inhibition": "inactive: -3.22%"}
{"compound": "COc1ccc(CCNC(=O)CCc2cn(Cc3ccc(C)cc3)c3ccccc23)c(OC)c1OC", "activity change, negative = inhibition": "inactive: 5.79%"}
{"compound": "Cc1nc(NC(=O)c2ccccc2)sc1-c1csc(Nc2ccc(Cl)cc2)n1", "Potency": "inconclusive [inhibitor, partial curve]"}
{"compound": "COc1cccc(/C=N/n2c(SC)nnc2-c2ccccc2)c1OC", "Potency": "inconclusive [inhibitor, full curve, poor fit]"}
{"compound": "CCOC(=O)c1cccc(NC(=O)C2CCCN(S(=O)(=O)c3c(C)nn(C)c3C)C2)c1", "note": "(stereo not drawn)", "Potency": "inconclusive [inhibitor, full curve, poor fit]"}
{"compound": "Cc1cccc(OCc2nnc(N)s2)c1", "Potency": "inconclusive [inhibitor, full curve, poor fit]"}
{"compound": "COc1ccc(-c2noc(N3CCC(C(=O)N(C)c4cc(Cl)ccc4OC)CC3)n2)cc1", "activity change, negative = inhibition": "inactive: 1.46%"}
{"compound": "NS(=O)(=O)c1ccc(N/N=C/c2ccc(O)c(O)c2O)c([N+](=O)[O-])c1", "activity change, negative = inhibition": "inactive: -13.2%"}
{"compound": "Cn1c(-c2ccccc2)cnc1NCc1cc(Cl)ccc1O", "Potency": "inconclusive [inhibitor, full curve, poor fit]"}
{"compound": "COc1cccc(-c2c(NC(=O)c3ccco3)n(-c3ccc(C)cc3)nc(C)c2=O)c1", "Potency": "inconclusive [inhibitor, full curve, poor fit]"}
{"compound": "CN(CC(=O)Nc1ccccc1Cl)C(=O)c1ccc(-c2cccc(C(F)(F)F)c2)o1", "Potency": "inconclusive [inhibitor, full curve, poor fit]"}
{"compound": "Brc1ccc(-c2nnc3ccc(N4CCN(c5ccccc5)CC4)nn23)cc1", "activity change, negative = inhibition": "inactive: -2.62%"}
{"compound": "COC(=O)c1ccc(OC)c(Cn2c(=O)n(-c3cccc(Cl)c3)c(=O)c3c4c(sc32)CN(C(C)=O)CC4)c1", "activity change, negative = inhibition": "inactive: 17.1%"}
{"compound": "O=C(COc1ccc(-n2cnnn2)cc1)Nc1ccccc1Cl", "Potency": "inconclusive [inhibitor, full curve, poor fit]"}
{"compound": "COc1ccc(C(=O)Nc2ccncc2)cc1[N+](=O)[O-]", "activity change, negative = inhibition": "inactive: 7.91%"}
{"compound": "CCc1cc(=O)[nH]c(SC/C=C/c2ccccc2)n1", "Potency": "inconclusive [inhibitor, partial curve]"}
{"compound": "COC(=O)c1ccc(NC(=O)CC2C(=O)N(c3ccc(C)cc3)C(=O)N2CC(C)C)cc1", "note": "(stereo not drawn)", "Potency": "inconclusive [inhibitor, full curve, poor fit]"}
{"compound": "CCOC(=O)C1CCCN(C(=O)Cn2ncn3c(cc4sc(CC)cc43)c2=O)C1", "note": "(stereo not drawn)", "activity change, negative = inhibition": "inactive: 18%"}
{"compound": "Nc1nc(CN2CCN(c3cccc(Cl)c3)CC2)nc(N2CCCc3ccccc32)n1", "Potency": "inconclusive [inhibitor, full curve]"}
{"compound": "N#CC1(c2ccc(NC(=O)c3ccccc3)cc2)CCCC1", "activity change, negative = inhibition": "inactive: 4.86%"}
{"compound": "COc1cc(OC)cc(C(=O)N2CCN(c3ccccn3)CC2)c1", "Potency": "inconclusive [inhibitor, full curve]"}
